# Laboratory results published in the supplement of paper PMC3334620.
# In all, about 33,000 sequences were measured (“E-score (-0.5 to 0.5)”: median about -0.043, highest 2% from about 0.37 on). Some of the results follow.
# Molecular target: T1, Upc2 (UniProt Q12151)
# T1 sequence: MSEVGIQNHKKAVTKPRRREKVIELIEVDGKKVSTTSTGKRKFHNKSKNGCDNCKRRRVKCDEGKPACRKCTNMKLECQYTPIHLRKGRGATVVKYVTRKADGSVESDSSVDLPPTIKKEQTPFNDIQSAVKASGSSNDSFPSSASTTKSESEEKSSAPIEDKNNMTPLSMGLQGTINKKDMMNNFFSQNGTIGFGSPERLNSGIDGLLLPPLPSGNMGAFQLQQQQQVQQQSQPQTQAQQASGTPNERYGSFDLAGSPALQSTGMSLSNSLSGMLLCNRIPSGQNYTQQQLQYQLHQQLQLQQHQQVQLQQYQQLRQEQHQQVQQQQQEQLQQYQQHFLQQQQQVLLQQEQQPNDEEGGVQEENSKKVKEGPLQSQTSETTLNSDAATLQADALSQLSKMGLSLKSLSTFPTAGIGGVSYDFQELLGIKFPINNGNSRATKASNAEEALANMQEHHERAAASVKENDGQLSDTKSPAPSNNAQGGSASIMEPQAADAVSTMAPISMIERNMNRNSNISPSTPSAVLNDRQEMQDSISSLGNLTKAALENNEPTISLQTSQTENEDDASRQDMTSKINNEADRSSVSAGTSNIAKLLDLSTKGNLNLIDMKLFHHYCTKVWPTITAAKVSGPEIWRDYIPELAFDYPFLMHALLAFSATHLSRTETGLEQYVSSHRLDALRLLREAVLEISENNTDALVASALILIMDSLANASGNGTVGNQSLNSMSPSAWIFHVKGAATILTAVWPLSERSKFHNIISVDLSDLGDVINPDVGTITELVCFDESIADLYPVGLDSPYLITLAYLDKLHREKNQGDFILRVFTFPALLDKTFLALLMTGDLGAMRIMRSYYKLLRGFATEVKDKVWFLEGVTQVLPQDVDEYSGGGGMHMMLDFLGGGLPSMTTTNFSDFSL
# Assay: PBM E-score (8-mer binding enrichment) (E-score (-0.5 to 0.5)); higher = stronger / more preferred TF binding; most listed sequences are background and not binding sites
# Conditions: protein concentration: 200 nM; construct: GST-full length
# Outline: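 E-scores (a modified Wilcoxon-Mann-Whitney statistic) were assigned by the Universal PBM Analysis Suite to every ungapped eight-base word pooled with its reverse complement. The input came from universal all-10-mer Agilent arrays made double-stranded by primer extension and probed with GST-tagged yeast transcription factors at about 100-200 nM. Fluorescent anti-GST detected bound protein, and masliner normalised the scans.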
row,Sequence,PBM E-score
1,GGGTAGGA,-0.251
2,CTAAAGGA,-0.0487
3,CCGAACGG,0.199
4,CTCCACAA,-0.0492
5,GCCCAAAA,-0.183
6,ATTTTTTG,-0.114
7,CGTGCGCC,-0.111
8,ATGTGCGA,0.183
9,GCGGATAC,0.173
10,ATTGGTCC,-0.115
11,CACCAAGA,-0.123
12,ATGGCGGA,-0.291
13,AACGTTGG,0.0877
14,AGGAGACT,-0.276
15,CACGCTCA,-0.175
16,AGCTATAG,-0.335
17,CGACTACA,0.0715
18,AGCAAAGA,-0.287
19,GGGGGTAC,0.038
20,GAAATTTC,-0.129
21,AGGACCGC,-0.0146
22,GAGTACTA,0.146
23,GCAAGCGA,0.174
24,CGACAACC,0.201
25,AACCAAGA,-0.216

row,Sequence,PBM E-score
1,AAGGGATA,-0.148
2,CAGCTCGC,0.177
3,AGTTGAAT,-0.0311
4,AAAGAGCT,-0.156
5,AATTTCTC,-0.13
6,TCCACCAA,-0.202
7,ATGGACTG,-0.0948
8,CTGAAAGC,-0.0469
9,AATTCCTC,0.0346
10,CCTATATC,-0.111
11,GTCGTGGA,-0.269
12,ACATGAGT,-0.14
13,ACTTGAGC,-0.084
14,GATTTTAC,0.158
15,GACGAAGC,0.00181
16,GGAACGAC,0.453
17,CATCCCCC,-0.241
18,CGTCCGAC,-0.0139
19,ATATAGTA,0.0248
20,GCCGCGAA,-0.105
21,CTAATAGA,0.064
22,ACAAGACC,-0.248
23,AAGTAGAA,-0.176
24,ACCAGGAG,-0.167
25,CGAAATAG,0.0802

row,Sequence,PBM E-score
1,CTCGAAGC,-0.218
2,TCTGCGCA,-0.00778
3,CTCATAAG,-0.0756
4,AGAGGTAC,-0.158
5,ATCGCACG,-0.0846
6,GAGCGATC,0.11
7,TCGGCAAA,0.1
8,AAGCGCGA,0.0392
9,GACATAGC,-0.239
10,CTTCCATC,-0.243
11,GATCTTGC,-0.106
12,CGACCAGA,0.0386
13,ATCAGTTG,-0.172
14,ATAACCCC,-0.125
15,CAGTACTA,-0.0786
16,CCGTGTAC,0.28
17,ACCAAGGA,-0.182
18,ATCGGGGC,-0.0345
19,AATAGACT,-0.11
20,ACTCTCCC,-0.306
21,CTGAATAA,-0.077
22,TAATTATA,0.206
23,GGCGAAGA,-0.241
24,AGACGGGG,-0.147
25,GTCGTTAA,0.465

row,Sequence,PBM E-score
1,CCCAAAAC,0.0799
2,AGCCCCTC,0.0707
3,CATTATGA,-0.00873
4,CACTAGTG,-0.0259
5,CCAGCTTC,0.0777
6,CGCACTAC,-0.0438
7,CCCCTACG,-0.00672
8,CACGGTAG,-0.132
9,ACCACTTG,0.0216
10,CAAGGATA,-0.154
11,CGGGGGAG,-0.327
12,TGCACTAA,0.132
13,AGATTCGG,-0.0979
14,AGCACATC,-0.0866
15,GACGGATA,0.017
16,ATCGCTTA,0.364
17,TCCGATAA,-0.0419
18,AGTGGATA,-0.0766
19,GAGTATGA,0.122
20,ACTATTGA,-0.107
21,CCTCTCGA,-0.233
22,AGCATCCG,0.106
23,ATGCTCTG,-0.327
24,CAATGTTC,-0.0537
25,GGATTGTA,0.107

row,Sequence,PBM E-score
1,ACGGCGCC,0.163
2,AACGTGGG,0.0129
3,ATCGCACA,0.179
4,GCGCATGA,-0.299
5,CATGCACA,-0.124
6,CAACCCTG,-0.111
7,ACCTACGT,0.0734
8,GGGACTTA,0.0736
9,CTACGAAG,0.316
10,ACACTACC,-0.098
11,TACCTCCA,-0.00908
12,AGTGCTAA,0.00422
13,GTCAGCCA,-0.216
14,AGGGATTG,0.058
15,GCGCGGTA,0.103
16,TCTGAGCA,-0.13
17,ACCCTATC,-0.0893
18,GAGACGTA,0.113
19,ATTTGGAG,-0.217
20,ACATTAAA,0.099
21,CCTGTATA,0.157
22,CGTACTCC,0.256
23,CCTATTTC,-0.147
24,ACCGATCG,0.22
25,AGTCATAT,-0.13

row,Sequence,PBM E-score
1,CGACAGGA,0.107
2,AAGCTTAG,-0.0363
3,TGATTTAA,-0.107
4,AAAGTCTC,-0.0443
5,GCAATTGC,-0.014
6,ACAGCGAG,-0.00379
7,CCACGTGA,-0.165
8,ATATAGGC,0.0305
9,ACCGAAAA,0.138
10,CAACAAGC,-0.163
11,AACCTTAA,-0.0268
12,GGGGCTAA,-0.163
13,GGGTGCTA,-0.224
14,ACACTAAA,0.123
15,AGCGCGTC,-0.197
16,GCAGCACC,-0.408
17,CGTTAGAA,0.187
18,ACTTCCTA,-0.194
19,ACGGACCC,0.199
20,AGAGACAC,-0.0608
21,ACGTAAAT,0.174
22,GCGAACCC,0.0969
23,AGAAAACT,-0.094
24,CCATGTCC,-0.112
25,CTGGGTCC,-0.1

row,Sequence,PBM E-score
1,AATGTCGT,0.318
2,GGCCGCAA,-0.0822
3,CGAACGTA,0.22
4,CAAACGCA,0.258
5,CATTGGAG,-0.0944
6,CGGTGCTA,0.171
7,CATCTAAC,-0.0214
8,CATATTGA,-0.0938
9,AGCCCGGA,-0.0941
10,ATACATTC,-0.00444
11,CTAGGCAA,-0.304
12,GACTTGCC,-0.181
13,AATGACAG,-0.0946
14,ACAAGAGA,-0.0496
15,CTCTGTCC,-0.116
16,CATCACGA,-0.149
17,AATGACTC,-0.0886
18,GTAACTAA,0.103
19,CGGGTGCA,-0.0254
20,CAGTGGGC,-0.138
21,CAATGGCC,-0.0349
22,CCCCTGCA,-0.248
